The test system of the data set is MDCKII-cells transfected with the human P-gp-transporter (hMDR1). The following applies: for Permeability (Papp) Papp,AtoB: apical-to-basolateral; for Permeability classification Papp,AtoB: from Papp,AtoB; for Human P-gp substrate classification: from efflux ratio.
The mark [1] stands for this setting: 0.5 μM, 60 min, 1% BSA in HBSS pH 7.4, mean ± SD N=3.

This note sets out measurements from publication PMC10809502, “Application of a new MDCKII-MDR1 cell model to measure the extent of drug distribution in vitro at equilibrium for prediction of in vivo unbound brain-to-plasma drug distribution” (Fluids and Barriers of the CNS, 2024).

Where only a bound is given, the exact number is not on record here.

Take `O=C(c1ccc(F)cc1)C1CCN(CCn2c(=S)[nH]c3ccccc3c2=O)CC1` [Altanserin]: the “Permeability classification Papp,AtoB” value is given as “Moderate (moderate > 1 Papp < 10)” and the “Human P-gp substrate classification” value is given as “Unlikely (unlikely substrates: ER < 1.5)”. Also, the “Permeability (Papp) Papp,AtoB” value under setting [1] is on record as 3.0 ± 0.6 10^–6 cm/s.

For the molecule `O=C1CC2(CCCC2)CC(=O)N1CCCCN1CCN(c2ncccn2)CC1` [Buspirone, buspirone], the “Permeability classification Papp,AtoB” value is “High (high: Papp > 10)”. Under setting [1], the “Permeability (Papp) Papp,AtoB” value is recorded as 21 ± 2 10^–6 cm/s.

`CN/C(=N/CCSCc1nc[nH]c1C)NC#N` [Cimetidine, cimetidine]: under setting [1], the “Permeability (Papp) Papp,AtoB” value was “< LLOQ”.

On to `CN(C)CCCC1(c2ccc(F)cc2)OCc2cc(C#N)ccc21` (centres unmarked) [Citalopram, citalopram], for which the “Permeability classification Papp,AtoB” value is listed as “Moderate (moderate > 1 Papp < 10)” and the “Human P-gp substrate classification” value is “Possible (possible substrates: ER > 1.5)”. Moreover, under setting [1], the “Permeability (Papp) Papp,AtoB” value is given as 4.7 ± 0.4 10^–6 cm/s.

With `CN(C)CCC=C1c2ccccc2COc2ccccc21` [Doxepin, doxepin], the “Permeability classification Papp,AtoB” value is “Moderate (moderate > 1 Papp < 10)” and the “Human P-gp substrate classification” value is “Unlikely (unlikely substrates: ER < 1.5)”.

As to `NCC1(CC(=O)O)CCCCC1` [Gabapentin, gabapentin], the “Permeability classification Papp,AtoB” value was “Moderate (moderate > 1 Papp < 10)” and the “Human P-gp substrate classification” value was “Unlikely (unlikely substrates: ER < 1.5)”. Besides, the “Permeability (Papp) Papp,AtoB” value under setting [1] is 2.9 ± 0.7 10^–6 cm/s.

Take `COc1ccc2c(c1)c(CC(=O)O)c(C)n2C(=O)c1ccc(Cl)cc1` [Indomethacin, indomethacin]: the “Permeability classification Papp,AtoB” value was “Moderate (moderate > 1 Papp < 10)” and the “Human P-gp substrate classification” value is reported as “Unlikely (unlikely substrates: ER < 1.5)”. Further, the “Permeability (Papp) Papp,AtoB” value under setting [1] is listed as 3.7 ± 0.5 10^–6 cm/s.

Consider `Clc1ccc2c(c1)N=C(N1CCNCC1)c1ccccc1N2` [N-desmethylclozapine], for which the “Permeability classification Papp,AtoB” value is “Moderate (moderate > 1 Papp < 10)” and the “Human P-gp substrate classification” value is on record as “Likely (likely P-gp substrates: ER > 2)”. For the same molecule, the “Permeability (Papp) Papp,AtoB” value under setting [1] is 2.1 ± 0.5 10^–6 cm/s. In addition, where the note is “inhibitor present”, the “ER with an inhibitor present” value is listed as 0.8.

For `CC(C)NCC(O)COc1cccc2ccccc12` (centres unmarked) [Propranolol, propranolol], the “Permeability classification Papp,AtoB” value is given as “Moderate (moderate > 1 Papp < 10)” and the “Human P-gp substrate classification” value is “Unlikely (unlikely substrates: ER < 1.5)”. The “Permeability (Papp) Papp,AtoB” value under setting [1] was 4.5 ± 0.4 10^–6 cm/s.

`COc1ccccc1N1CCN(CCN(C(=O)C2CCCCC2)c2ccccn2)CC1` [Way-100635]: the “Permeability classification Papp,AtoB” value is recorded as “High (high: Papp > 10)” and the “Human P-gp substrate classification” value is recorded as “Unlikely (unlikely substrates: ER < 1.5)”. Also, the “Permeability (Papp) Papp,AtoB” value under setting [1] is 13 ± 1 10^–6 cm/s. The “Permeability (Papp) Papp,BtoA” value (basolateral-to-apical, 0.5 μM, 60 min, 1% BSA in HBSS pH 7.4, mean ± SD N=3) is 17 ± 3 10^–6 cm/s. For the same molecule, the Efflux ratio (conventional bidirectional transport, MDCKII-MDR1, no inhibitor) was found to be 1.3.
